# From PubChem BioAssay AID1347073 (National Center for Advancing Translational Sciences (NCATS), 2019)
# Among all 45,000 compounds or so, about 200 (0.44%) were called active. Inconclusive results (about 7%) are left out. The call rests on the fitted dose curve; in most records, active means well fitted activation curve with a large enough effect; inconclusive means small, poorly fitted or top-dose-only effect; inactive means no such curve, though single readings can be large or run the other way. Some of the results follow.
# Assay: qHTS of TDP-43 Inhibitors: NCGC Sytravon Library Screen; further: nearly all actives have a fitted effect of over 55% in size; on growth rescue (activation): 0% is about no effect
# Details: yeast TDP-43 toxicity rescue, BacTiter-Glo growth, 24 h; series mostly up to 46.1 µM; growth rescue (activation): at the top concentration
# Summary of the method: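 TDP-43-expressing yeast, pregrown in raffinose, seeded at OD600 0.02 in galactose medium with compound for 24 hr at 30 deg C. Growth read by BacTiter-Glo luminescence, so rescue of toxicity appears as activation.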
# Potency means the concentration at half of the fitted maximal effect.
SMILES,growth rescue (activation),Potency
Cc1ccc(S(=O)(=O)Nc2ccccc2C(=O)N2CCCC2)cc1,inactive: 14.3%,–
COc1ccc(C(=O)N2CCC(C(=O)Nc3ccccc3C)CC2)cc1OC,inactive: -0.102%,–
COc1ccc(C(=O)N[C@H](C(=O)NCc2ccc(C)cc2)C(C)C)cc1,inactive: 17.4%,–
N#CCCN(C(=O)COC(=O)/C=C/c1cccs1)c1ccccc1,inactive: 10.3%,–
CCc1ccc(N(CC(=O)NC(C)C)C(=O)CCC(=O)Nc2nccs2)cc1,inactive: -1.14%,–
Cc1ccc(NC(=S)NCCc2ccc(S(N)(=O)=O)cc2)cc1C,inactive: 28.8%,–
O=C(Nc1cccnc1)C1CCC(CNS(=O)(=O)c2cccc3nsnc23)CC1 (stereo not drawn),inactive: 17.7%,–
CC(C)NC(=O)CN1CCN(C(=O)c2ccc3oc(CCCc4ccccc4)nc3c2)CC1,inactive: 10.5%,–
CCC(C(=O)N1CCN(c2ccccc2OC)CC1)c1ccccc1 (stereo not drawn),inactive: 14.5%,–
CNS(=O)(=O)c1cccc(C(=O)NNC(=O)c2ccc(COc3ccccc3)cc2)c1,inactive: 10.3%,–
CN(CC(=O)Nc1ccc(F)cc1)C(=O)CN1C(=O)NC2(CCCC2)C1=O,inactive: -26.2%,–
COc1ccc(C2(C)NC(=O)N(CC(=O)N(c3ccccc3)C3CCS(=O)(=O)C3)C2=O)cc1 (stereo not drawn),inactive: 0.945%,–
O=C(CSc1cccc[n+]1[O-])Nc1cc2c(cc1Cl)C(=O)c1ccccc1C2=O,inactive: 19.7%,–
CCCc1cc(=O)[nH]c(SCC(=O)Nc2c(C)n(C)n(-c3ccccc3)c2=O)n1,inactive: -0.324%,–
O=C(NC1CC1)C1CCN(C(=O)c2ccc(Cl)cc2)CC1,inactive: 11.7%,–
O=C(CNC(=O)c1ccco1)NCC(=O)OCc1ccccc1Cl,inactive: 18.3%,–
O=C(Nc1ccc(Cl)cn1)c1ccc(COc2ccccc2Br)o1,–,active: 11.2 µM
Cc1cc(NC2CCCC2)n2nc(C)c(-c3ccccc3)c2n1,inactive: 6.75%,–
Nc1c(NCCN2CCOCC2)c2ccccc2oc1=O,inactive: 3.19%,–
O=C(CNc1cccc2ccccc12)N/N=C/c1ccc[nH]1,inactive: 8.68%,–
CCS(=O)(=O)c1ncc(Cl)c(C(=O)Nc2ccc(S(=O)(=O)N3CCCC(C)C3)cc2)n1 (stereo not drawn),inactive: 3.6%,–
O=C(COC(=O)[C@H](Cc1ccccc1)NC(=O)c1cccs1)NC1CC1,inactive: -0.92%,–
Cc1ccc(-c2c(C)n([O-])c3c([n+]2=O)CCCCC3)cc1,inactive: 17.5%,–
COc1ccccc1NC(=O)CSc1nnnn1C1CCCC1,inactive: 0.953%,–
COC(=O)c1ccc(/C=N/N2CCN(Cc3ccccc3Cl)CC2)cc1,inactive: 4.01%,–
COc1ccc(OCC(=O)N(Cc2ccco2)C2CCS(=O)(=O)C2)cc1 (stereo not drawn),inactive: -16%,–
COc1ccc(N2CCN(C(=O)CNC(=O)c3ccco3)CC2)cc1,inactive: 13.7%,–

SMILES,growth rescue (activation),Potency
Cc1cccc(CNC(=O)Nc2nnc([C@H]3C[C@H](O)[C@@H](CO)O3)s2)c1,inactive: -0.46%,–
Cc1ccsc1/C=N/NC(=O)c1cccnc1,inactive: -15.3%,–
Cc1ccccc1C(=O)NC(CC(C)C)C(=O)OCc1cc(=O)n2cc(Br)ccc2n1 (stereo not drawn),inactive: 15%,–
CCC(C)(C)NC(=O)CN(C(=O)CCC(=O)Nc1ccccn1)c1ccc2c(c1)OCO2,inactive: -6.93%,–
COc1cccc(CN2CCN(C3CCOCC3)CC2CCO)c1 (stereo not drawn),inactive: -18.4%,–
CC(C)NC(=O)CN(c1cccc([N+](=O)[O-])c1)S(=O)(=O)c1ccccc1,inactive: 7.78%,–
Cc1cc(C)nc(N=Nc2c(O)n(Cc3ccc(Cl)cc3)c3ccccc23)n1,inactive: 18.1%,–
CCNc1nc(NCC)n2c(SCC(=O)Nc3ccc(C)cc3Br)nnc2n1,inactive: 9.8%,–
CCN(CC)S(=O)(=O)c1ccc(N2CCN(C)CC2)c(NC(=O)Nc2ccc(C)cc2)c1,inactive: 11.3%,–
Cc1ccccc1NC(=O)c1ccc2nccnc2c1,inactive: 14.6%,–
COc1ccc(OC)c(-c2csc(NC(=O)C3COc4ccccc4O3)n2)c1 (stereo not drawn),inactive: 31.3%,–
O=C(CN1CCN(S(=O)(=O)c2ccc(F)cc2)CC1)NCC1(N2CCOCC2)CCCCC1,inactive: 18.2%,–
COc1ccccc1C(=O)COC(=O)c1cccs1,inactive: 26.5%,–
Cc1c(-c2ccc(F)cc2)[n+](=O)c2c(n1[O-])CCCCC2,inactive: -4.3%,–
CC(C)N(Cc1nccn1C)C(=O)c1cc(COc2ccc3ncccc3c2)on1,inactive: -3.35%,–
COc1ccccc1N1CCN(CC(=O)Nc2sccc2C#N)CC1,inactive: -1.07%,–
NS(=O)(=O)c1ccc(CCNC(=O)COC(=O)/C=C/c2cc(Br)ccc2F)cc1,inactive: -22.9%,–
CNS(=O)(=O)c1cccc(C(=O)OCC(=O)Nc2ccc(Cl)cc2F)c1,inactive: 38.3%,–
C=CCc1cccc(C=Nc2cccn3cc(-c4ccccc4)nc23)c1O,inactive: -4.14%,–
O=C(CSc1nnc(-c2cccnc2)o1)Nc1cccc(Cl)c1,inactive: 22.4%,–
COc1ccc(C2C(C(=O)NCCCN3CCOCC3)c3ccccc3C(=O)N2c2ccc(OC)cc2)cc1 (stereo not drawn),inactive: 6.06%,–
O=CNc1ccc(OC(=O)c2cncc(Br)c2)cc1,inactive: 22.8%,–
CCN=C1NN=C(c2cc(C)n(Cc3ccco3)c2C)CS1,inactive: 9.26%,–
COc1ccc(/C=N/Nc2nc(-c3ccc(C)cc3)c(NC(C)=O)s2)cc1,inactive: 13%,–
CCN(CC)S(=O)(=O)c1ccc(C(=O)Nc2ccc(Cc3ccncc3)cc2)cc1,inactive: 5.79%,–
CCCCC1(C)OC(=O)C(=Cc2ccc(-c3ccc(Cl)c(C(=O)O)c3)o2)C(=O)O1 (stereo not drawn),inactive: 0.289%,–
